This is one part of the list. Values were computed here from the reads of four pooled replicates and scatter widely.
Molecular target: T1, Pho4 (S. cerevisiae) (UniProt P07270)
T1 sequence: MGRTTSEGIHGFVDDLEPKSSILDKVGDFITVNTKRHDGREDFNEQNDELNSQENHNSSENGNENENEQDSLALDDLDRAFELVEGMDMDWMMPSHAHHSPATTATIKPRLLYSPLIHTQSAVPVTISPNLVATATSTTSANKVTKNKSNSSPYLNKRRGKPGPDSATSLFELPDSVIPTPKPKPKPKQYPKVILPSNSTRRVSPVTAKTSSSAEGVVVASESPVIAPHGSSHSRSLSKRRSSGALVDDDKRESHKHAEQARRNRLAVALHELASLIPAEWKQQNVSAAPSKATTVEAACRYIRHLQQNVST
Assay: relative binding free energy (BET-seq); higher = weaker binding
Conditions: reference: library average

Sequence | relative binding free energy [kcal/mol]
TTTGGCACGTGAGGCT | 0.15
AGGTGCACGTGGATGC | -0.08
TAAGGCACGTGGTTTG | -0.09
GTCCTCACGTGGGGTG | 0.06
TTGGGCACGTGAAGAC | 0.31
TGACTCACGTGTTGTT | 0.25
GATATCACGTGGTAGT | 0.16
TGATCCACGTGTGGCT | 0.09
GTGGACACGTGGATGA | 0.22
AGTCACACGTGTTTTT | 0.09
CTTTTCACGTGGGATA | 0.03
TAATACACGTGGCGGT | -0.04
TTAAGCACGTGCGATT | -0.04
GTATTCACGTGTGAGC | 0.37
GTTAGCACGTGGGAGT | -0.12
TGTGTCACGTGCCTTT | 0.12
CTTATCACGTGTTTTT | 0.07
GTTGCCACGTGGAGGT | -0.04
ATATGCACGTGTAGGG | 0
AAGGCCACGTGTGAGG | -0.15
CGTGTCACGTGTTCTG | 0.16
GCCGGCACGTGGGTGA | -0.14
ATTAACACGTGATTGT | -0.04
TGGCGCACGTGTGTTG | -0.1
ATGACCACGTGAGGTG | 0.22
GTTGGCACGTGGTGAT | -0.01

Sequence | relative binding free energy [kcal/mol]
GGGGCCACGTGGGTAT | -0.11
ATATGCACGTGTCGGA | 0.03
AGCGCCACGTGGGGGC | -0.21
GCAGTCACGTGATAGG | 0.26
AATGGCACGTGGATTG | -0.16
ACTTACACGTGTGGGT | 0.04
AATCGCACGTGGGGTG | -0.18
GATGGCACGTGTATTT | 0.11
TGTTACACGTGAACTG | 0.29
ATTCGCACGTGGCGTG | -0.17
GGTTTCACGTGTGTCG | 0.34
AGGTGCACGTGAGGTG | 0.21
TTATCCACGTGTTTGG | -0.05
GATCACACGTGGGTTT | 0.06
TGCTACACGTGATTGG | 0.14
GTTACCACGTGTTTAT | 0.11
TGGCGCACGTGTGGTG | -0.08
TTTCTCACGTGTGTAT | 0.28
TAGCTCACGTGGTATT | 0.02
AGGCGCACGTGTGTGG | -0.07
TTTGTCACGTGCGTCG | -0.13
CTTGTCACGTGATGTA | 0.22
CGTGTCACGTGGATTG | 0.14
GTGTCCACGTGTGGCA | 0.21
ATAGTCACGTGGACTT | 0.06
TCTTGCACGTGTGGGC | 0.07

Sequence | relative binding free energy [kcal/mol]
GTTATCACGTGTCTGG | 0.18
TTACGCACGTGATGTA | -0.02
GGCGACACGTGTTGTG | 0.04
TTAAGCACGTGGGCAA | -0.1
ATCGGCACGTGGGCTG | -0.36
CGGTCCACGTGAGGTG | 0.1
TTAGGCACGTGGCCTG | -0.26
CGATTCACGTGTATGT | 0.18
CGGTACACGTGGGTCG | -0.11
ATCAGCACGTGTTAGG | -0.01
ATTAACACGTGTGGTT | 0.11
GTGTACACGTGCTAGT | 0.06
TTTGTCACGTGTCCAG | 0.11
CTCGTCACGTGGGGTA | -0.13
TTAGGCACGTGAAGGT | 0.06
GTGGGCACGTGAGTTT | 0.2
ATGGGCACGTGCAAGT | -0.05
GTGAGCACGTGAGATT | 0.17
TAGGGCACGTGATTAT | -0.03
AGGGGCACGTGGGGAT | -0.14
GGGCACACGTGGCTGG | 0.08
ATCGTCACGTGTTGTA | 0.16
TGTGACACGTGTATAG | 0.1
TGTTCCACGTGTGGTA | 0.11
ATGTGCACGTGGTGTC | -0.16
TTGGTCACGTGAAACT | 0.35

Sequence | relative binding free energy [kcal/mol]
GCTAGCACGTGTCGGT | 0.13
ATTTACACGTGATAGA | 0.27
GGAGTCACGTGAGAGT | 0.24
AGTGCCACGTGATGTG | 0.09
AGTGGCACGTGGATGA | -0.07
TGTTGCACGTGGGTGG | -0.02
CGTGTCACGTGGGGGT | -0.06
TAGTTCACGTGTGCTG | 0.14
TTATTCACGTGCTTAG | 0.22
TGAGACACGTGCAGTG | 0.07
TTAGTCACGTGTAAGC | 0.06
GTGGACACGTGAGGGT | 0.24
TTGATCACGTGGATGG | 0.14
TGGTACACGTGAGGTA | 0.33
TTGTACACGTGGCTAT | -0.07
TCAGGCACGTGTGGCT | 0.02
GGTCACACGTGGTTTG | 0.06
TGTGTCACGTGTGGAG | 0.09
GGAGTCACGTGTCTTT | 0.16
TGAGTCACGTGGAGTG | 0.04
GGGTACACGTGGTCAA | 0.08
GTATACACGTGTGGCG | 0.02
TTTTACACGTGGTATG | 0.07
TAGGTCACGTGAAGGA | 0.18
TATCTCACGTGTAGGG | 0.21
ATCTGCACGTGGGCGT | -0.12

Sequence | relative binding free energy [kcal/mol]
TTTTCCACGTGGCTTT | 0.07
GGATTCACGTGGTTCG | 0.32
CGTAGCACGTGACGGG | 0.03
TGGTACACGTGATGAA | 0.16
GCGTGCACGTGGTAGA | -0.03
TGTTGCACGTGCAGGG | -0.07
TTTACCACGTGAGTGG | 0.14
GGAAACACGTGGGGTC | -0.04
AGGTTCACGTGAGGGT | 0.36
AAGGCCACGTGTGTAT | -0.07
ATAATCACGTGTGTTG | 0.12
TTAAGCACGTGGGGAT | -0.09
GCAAGCACGTGGGTTG | -0.24
TTTTTCACGTGAGTGT | 0.31
AGTTTCACGTGCGTTA | 0.17
AGGATCACGTGTTGGG | 0.2
GATTTCACGTGAGTGT | 0.35
ATTTGCACGTGTAATT | 0.1
TAGTGCACGTGAGAAT | 0.17
AATAGCACGTGTTCGT | -0.21
AGGCTCACGTGGTTAA | 0.19
AGGTTCACGTGTAGCG | 0.16
GGAGGCACGTGTTTTG | -0.06
TGTGTCACGTGTTAAA | 0.09
CGTGGCACGTGGGAAA | -0.17
CGAAGCACGTGATGGG | 0.02

Sequence | relative binding free energy [kcal/mol]
GGTAGCACGTGACATG | 0.16
GGGTTCACGTGGGTCG | 0.21
TTGGGCACGTGTGAGC | 0.02
TTAGACACGTGCGTTG | -0.03
TAGTTCACGTGGTAAC | 0.24
TAGGGCACGTGGGTAA | -0.23
TGAGTCACGTGAGGAT | 0.46
AGAAGCACGTGGAGGA | -0.11
TTGGTCACGTGTAATA | 0.18
TTTTACACGTGATTGG | 0.21
ACTTTCACGTGATTTT | 0.24
TAATTCACGTGTTGGA | 0.25
ATGGACACGTGTGGGC | 0.08
TGTGACACGTGAGAGT | 0.14
ATTTGCACGTGACCGG | 0.05
GGGAACACGTGTGTAA | 0.1
GTCATCACGTGGAGGG | 0.13
GTCGTCACGTGTGGGT | 0.1
TCGTGCACGTGGTGGG | -0.07
CGGGGCACGTGGGTTT | -0.2
TTTGTCACGTGATTAC | 0.29
TTGGACACGTGAAGTG | 0.29
AGGGGCACGTGGACCT | 0
TCAGTCACGTGATTTG | 0.31
TAGGTCACGTGTGACG | 0.16
CGAGGCACGTGCAAGG | -0.01

Sequence | relative binding free energy [kcal/mol]
ATGAACACGTGGGATG | 0
GTAGTCACGTGGCGGA | 0.05
GGGAACACGTGAGTTT | 0.53
CAAAGCACGTGTGGGG | -0.16
AAGTTCACGTGTTGCG | 0.34
AAGCGCACGTGAGTGT | 0.1
GGTTACACGTGGTTTG | 0.15
ATATTCACGTGAGCGT | 0.13
TTGGACACGTGGCTTT | 0.06
AATGTCACGTGTAGTG | 0.05
TTATACACGTGATATA | 0.28
ACTATCACGTGGGGGG | 0.01
TGAGTCACGTGTCAGT | 0.12
GTAAGCACGTGGCTGG | -0.1
GGGGTCACGTGTTATC | 0.21
AGACACACGTGGTTGG | -0.06
TTTAGCACGTGCGATG | -0.15
GCAGGCACGTGGCGGG | -0.22
GTTTCCACGTGGTAAG | 0.17
GGGATCACGTGTCATG | 0.12
TTTTACACGTGGGCCT | 0.11
ACGTGCACGTGGGGTA | -0.27
TTGGTCACGTGAACGT | 0.28
GATTGCACGTGTTTGT | -0.01
AGTTTCACGTGAGAGT | 0.48
TTAGCCACGTGTTTTA | -0.05

Sequence | relative binding free energy [kcal/mol]
CGTTACACGTGAGGGC | 0.33
GAGGCCACGTGGCGGG | -0.06
ATGCACACGTGTGTGG | 0.01
AGTGCCACGTGTATTT | -0.09
GATTCCACGTGAGGTT | 0.35
AAGGTCACGTGTTATG | -0.06
AGTTACACGTGTCGGG | 0.17
AACTGCACGTGAAGGG | 0.22
ATTTACACGTGCGGGT | 0.14
AGGACCACGTGGCGTG | 0.01
TAAGGCACGTGGGGAG | -0.37
ATGTTCACGTGGTATG | 0.21
AAGGGCACGTGATGTT | 0.08
AGCGGCACGTGGTAGT | -0.2
ATAATCACGTGGGGAG | 0.04
AGTTCCACGTGATTAG | 0.23
TATTTCACGTGGCTAT | 0.27
GTTATCACGTGTGGAC | 0.27
GTTATCACGTGTTTGA | 0.13
CTAGGCACGTGTGTTG | -0.14
ATTGACACGTGGCGTT | -0.11
ATAAACACGTGAGGGG | 0.19
TTTTTCACGTGACTGA | 0.31
GGGGGCACGTGGCTTC | -0.16
TATTGCACGTGTCTAG | 0.06
TGAGTCACGTGGGGGC | 0.09

Sequence | relative binding free energy [kcal/mol]
AGGGGCACGTGGAAGG | -0.11
TAGTACACGTGTTTGA | 0.1
TGAGTCACGTGGGGTC | -0.1
TGGTCCACGTGAGGTG | 0.2
GTAGGCACGTGTGTGC | -0.03
GGTTTCACGTGGACTG | 0.33
ATGTACACGTGGTGAA | 0.03
AGGAACACGTGTAGCG | 0.27
GGATCCACGTGTGTTA | 0.1
TATGGCACGTGAAGAG | 0.28
ATCTGCACGTGTGTAT | 0.01
GTGGCCACGTGTATTT | 0.03
AAAATCACGTGGTGAT | 0.06
TTGGACACGTGAGAGT | 0.3
TCTTGCACGTGGTTCA | -0.02
GATCTCACGTGGGGCG | 0.13
TGGACCACGTGGTGGG | -0.14
GTGTCCACGTGAGGAT | 0.36
TTACGCACGTGGTATT | -0.17
CGGTACACGTGTGTGT | 0.06
GGAACCACGTGGGGTG | -0.18
GATACCACGTGGTGGT | -0.04

Source: the BET-seq Pho4 binding data (Le et al. 2018)
